PubChem BioAssay AID686978 (National Center for Advancing Translational Sciences (NCATS), 2013)
“And” between values parts separate entries of the source, which are not always exact repeats. Equal values may be shown once. The whole screen tested about 420,000 compounds, of which about 64,000 (15%) were called active. This list was built around the results that the source calls inconclusive (neither active nor inactive); the mix of calls is not that of the screen. The call rests on the fitted dose curve; in most records, active means well fitted inhibition curve with a large enough effect; inconclusive means small, poorly fitted or top-dose-only effect; inactive means flat fitted curve, though single readings scatter. Potencies beside an inconclusive call are fits to weak or partial responses and may not hold up.

Assay: qHTS for Inhibitors of human tyrosyl-DNA phosphodiesterase 1 (TDP1): qHTS in cells in absence of CPT; further: nearly all actives have a fitted effect of over 55% in size
Details: DT40 Tdp1-/- hTDP1 cells, no CPT, ATP luminescence, 48 h; activity change, negative = growth inhibition: at 46.2 µM (top of the series) unless noted
Summary of the method: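 Chicken DT40 Tdp1-/- cells complemented with human TDP1, screened without camptothecin (DMSO vehicle only), 400 cells/well. Compounds pin-transferred, cells incubated at 37 °C for at least 48 hr. Growth read as ATP-dependent luminescence (CellTiter-Glo, 30 min at RT).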
On the % scale 0 is the no-effect control and ±100 the full control effect; potency means the concentration at half of the fitted maximal effect; tags describe the fitted curve by direction and shape.

SMILES | Potency | activity change, negative = growth inhibition
Nc1ncnc(Oc2cccc3cccnc23)c1[N+](=O)[O-] | inconclusive: 29.1 µM [inhibitor, single point] | 
Cc1ccc(-n2nnnc2CNC(=O)c2ccc(F)cc2)cc1C |  | inactive: -0.623%
O=C(/C=C/c1ccccc1)Oc1cccc2cccnc12 | active: 8.2 µM | 
CCOC(=O)Cc1csc(NC(=O)CSc2ncnc3c2cnn3-c2ccc(OC)cc2)n1 | active: 14.6 µM | 
O=C(Nc1ccccc1NC(=O)NC1CCCCC1)NC1CCCCC1 | inconclusive: 25.9 µM [inhibitor, single point] | 
Clc1cccc(N2CCN(c3ncnc4c3nc3n4CCCC3)CC2)c1 | active: 20.6 µM | 
COc1ccc(OC)c(S(=O)(=O)n2ccnc2C(C)C)c1 |  | inactive: 3.04%
O=C1CCN(Cc2ccc(Br)cc2)CCN1[C@H](CO)Cc1ccccc1 | inconclusive: 22.4 µM [inhibitor, single point] and inconclusive: 20.6 µM [inhibitor, partial curve] | 
O=C(CCN1C(=O)COc2ccccc21)NCCC1=CCCCC1 | inconclusive: 29.1 µM [inhibitor, single point] | 
COC(=O)c1cc2oc3ccccc3c2n1CC(=O)Nc1cc(OC)cc(OC)c1 |  | inactive: -18.1%
CCCOC(=O)C1=C(C)NC(=O)NC1c1cccc2ccccc12 (stereo unspecified) | inconclusive: 29.1 µM [inhibitor, single point] | 
C=CCn1c(O)c(N=NC(=S)Nc2ccccc2C)c2cc(S(=O)(=O)N3CCOCC3)ccc21 | active: 0.731 µM | 
Cc1ccc(F)c([C@H]2[C@@H]3C=CCC[C@@]3(C)C(=O)N2Cc2ccccc2)c1 | inconclusive: 29.1 µM [inhibitor, single point] | 
CC(=O)N1CCC2(CCCN(Cc3cc(C(F)(F)F)cc(C(F)(F)F)c3)C2)CC1 | inconclusive: 29.1 µM [inhibitor, single point] | 
COc1ccc(C(=O)NCC(c2cccs2)S(=O)(=O)c2ccc(F)c(C)c2)cc1 (stereo unspecified) | inconclusive: 20.6 µM [inhibitor, single point] | 
COc1ccc(NS(=O)(=O)c2cccc(C(=O)NNC(=O)c3cc(C)oc3C)c2)cc1 | inconclusive: 14.6 µM [inhibitor, single point] | 
O=C(COc1ccc2c(-c3ccccc3)cc(=O)oc2c1)NCc1ccccn1 | inconclusive: 18.4 µM [inhibitor, single point] | 
O=C(CN1C(=O)C(=O)N(C2CCCC2)C1=O)Nc1ccc([N+](=O)[O-])cc1 |  | inactive: -3.75%
COc1cccc2cc(-c3cn4c(n3)sc3cc(F)ccc34)c(=O)oc12 |  | inactive: -4%
COc1cccc(-c2nc(Cc3ccc(OC)c(OC)c3)no2)c1 | inconclusive: 25.9 µM [inhibitor, single point] | 
COC(=O)c1ccc(NS(=O)(=O)c2cc3c4c(c2)C(C)C(=O)N4CCC3)cc1 (stereo unspecified) | inconclusive: 29.1 µM [inhibitor, single point] | 
CCOc1ccc(-c2cc(C(=O)N/N=C/c3cccnc3)c3ccccc3n2)cc1 | active: 1.84 µM | 
Cc1ccc(CNC(=O)NC2COc3ccccc3C2)cc1 (stereo unspecified) |  | inactive: -21.9%
O=C(O)c1cccc2c1C(=O)c1ccccc1C2=O |  | inactive: -2.43%

SMILES | Potency | activity change, negative = growth inhibition
Cc1cc(C)cc(N(CC(=O)NC2CCCC2)C(=O)CCC(=O)Nc2cc(C)ccn2)c1 | inconclusive: 18.4 µM [inhibitor, single point] | 
CC(C)(C)c1ccc(C(=O)NC(=S)Nc2sc3c(c2C#N)CCC3)cc1 | inconclusive: 13 µM [inhibitor, partial curve] | 
CCN(CC)S(=O)(=O)c1ccc(S(=O)(=O)N2CCCC(C(=O)NC3CC3)C2)cc1 (stereo unspecified) | active: 5.8 µM | 
CCc1nc2ccc(C(=O)Nc3nnc(C)s3)cc2nc1CC | inconclusive: 11.6 µM [inhibitor, partial curve, poor fit] | 
NCCc1nnc(SCC(=O)c2ccc(Cl)cc2)o1 | inconclusive: 14.6 µM [inhibitor, single point] | 
CC(=O)N1CCC2(CC1)CN(c1ccccn1)C2 | inconclusive: 6.51 µM [inhibitor, full curve, poor fit] | 
COc1ccc(OC)c(CNC(=O)c2ccccc2NC(=O)c2nsc3ccccc23)c1 | inconclusive: 13 µM [inhibitor, partial curve] | 
CC1CCCN(C(=O)c2cccc(S(=O)(=O)Nc3cc(C(F)(F)F)ccc3Cl)c2)C1 (stereo unspecified) | inconclusive: 16.4 µM [inhibitor, single point] | 
COc1cccc(-c2ccc3nnc(SCC(=O)N4CCCC4)n3n2)c1 | inconclusive: 25.9 µM [inhibitor, single point] | 
Cc1ccccc1NC1=C/C(=N\S(=O)(=O)c2ccc(C(=O)O)cc2)c2ccccc2C1=O | active: 18.4 µM | 
N=c1ccn2c(n1)O[C@H]1[C@@H](CO)[C@H](O)O[C@H]12 | active: 0.0058 µM | 
CC(NC(=O)c1cc(F)c(F)c(F)c1F)c1ccc(-n2ccnc2)cc1 (stereo unspecified) | inconclusive: 14.6 µM [inhibitor, single point] | 
O=[N+]([O-])c1ccc(C=NN2CCNC2=S)o1 | active: 20.6 µM | 
O=[N+]([O-])c1ccc(N/N=C\c2ccccc2OCc2ccccc2)cc1 | inconclusive: 10.3 µM [inhibitor, single point] | 
O=C(/C=C/c1ccccc1)CCN1CCOCC1 | active: 1.46 µM | 
CCOC(=O)CSc1nc(N2CCOCC2)c2c(c1C#N)CC(C(C)C)OC2 (stereo unspecified) | inconclusive: 29.1 µM [inhibitor, single point] | 
CCOC(=O)N1CCN(Cc2ccc3c(c2)CN(C(=O)c2cc(-c4ccccc4)no2)CCO3)CC1 | active: 23.1 µM | 
Cc1ccc(CN2CCC(CNC(=O)c3ccc(NC(=O)C4=CSCCO4)cc3)CC2)cc1 |  | inactive: -25.1%
CCOc1ccc(CNc2ccc3c(c2)nc(C)n3C)cc1 | inconclusive: 14.6 µM [inhibitor, partial curve] | 
Cc1ccccc1NC(=O)CCC(=O)N/N=C/c1cc([N+](=O)[O-])ccc1O | active: 16.4 µM | 
O=C(Nc1ccc(N2CCCC2)cc1)c1cc(Br)ccc1Cl | active: 4.61 µM | 
C/C=C/C=N/Nc1nc(-c2ccc([N+](=O)[O-])cc2)cs1 | active: 23.1 µM | 
CCCCSc1nnc([C@@H]2CCCN2C(=O)OC(C)(C)C)o1 | inconclusive: 4.11 µM [inhibitor, partial curve] | 
O=C(CNC(=O)c1ccc(Br)o1)OCc1ccc(Br)cc1 |  | inactive: -0.828%

SMILES | Potency | activity change, negative = growth inhibition
O=[N+]([O-])c1ccc(N=Nc2c(O)[nH]c3ccc(F)cc23)cc1 | inconclusive: 16.4 µM [inhibitor, single point] | 
Cc1ccc(NC(=O)C2CCCN(S(=O)(=O)c3cccc4cccnc34)C2)c(Br)c1 (stereo unspecified) | inconclusive: 18.4 µM [inhibitor, single point] | 
CCn1c(CCC(=O)O)nc2cc(S(=O)(=O)N3CCOCC3)ccc21 |  | inactive: 4.85%
C[C@]12C=CC(=O)C=C1CC[C@@H]1[C@@H]2C(=O)C[C@@]2(C)[C@H]1CC[C@]2(O)C(=O)COC(=O)CCC(=O)O |  | inactive: -15.3%
Cc1ccc(S(=O)(=O)N2CCC(C(=O)NNC(=O)c3ccccc3O)CC2)cc1C | inconclusive: 18.4 µM [inhibitor, single point] | 
CC(C)CN(C(=O)COC(=O)C12CC3CC(CC(C3)C1)C2)c1c(N)n(Cc2ccccc2)c(=O)[nH]c1=O | active: 10.3 µM | 
C#CCOc1ccc(/C=C2/C(=O)N(c3ccc(S(N)(=O)=O)cc3)N=C2C)cc1OC | inconclusive: 29.1 µM [inhibitor, single point] | 
CCOc1ccc(CCNC(=O)CCn2nc(C)c3c(C)n(-c4ccccc4)nc3c2=O)cc1 |  | inactive: 16.3%
Cc1cc(C)n(-c2nc3ccccc3nc2Nc2cccc(C(=O)NCCc3ccccc3)c2)n1 | inconclusive: 9.2 µM [inhibitor, partial curve] | 
FC(F)(F)c1ccccc1NC(=S)NN=C1CCCCCC1 | inconclusive: 23.1 µM [inhibitor, single point] | 
CC1CC(C)CN(C(=O)COC(=O)c2cc3ccccc3oc2=O)C1 (stereo unspecified) |  | inactive: -7.09%
CC(C)NC(=O)Nc1ccc2c(c1)C(=O)N([C@H](C)CO)C[C@H](C)[C@@H](CN(C)Cc1ccc(C(F)(F)F)cc1)OCCCC[C@H](C)O2 | inconclusive: 23.1 µM [inhibitor, single point] | 
O=C(Cc1n[nH]c(=O)c2ccccc12)OCC(=O)c1ccc(F)c(F)c1 | inconclusive: 16.4 µM [inhibitor, single point] | 
Cc1ccc(-c2csc3ncnc(OCC(=O)NC(=O)NCc4ccco4)c23)cc1 |  | inconclusive: -30.1% [inhibitor]
CC(C)(C)N(Cc1ccccc1)C(=O)c1cc2ccccc2o1 | active: 11.6 µM | 
Cn1cc(S(=O)(=O)N2CCCCCC2)cc1C(=O)NCc1ccc(Cl)cc1 | inconclusive: 23.1 µM [inhibitor, single point] | 
COCCn1c(C)c(C)c2c(NCCc3ccccc3)ncnc21 | active: 16.4 µM | 
CCc1cccc(NS(=O)(=O)c2ccc3c(c2)oc(=O)n3C)c1 | inconclusive: 10.3 µM [inhibitor, partial curve] | 
Cc1onc(-c2ccccc2Cl)c1C(=O)Oc1ccc(Br)cc1 |  | inactive: -19.2%
COc1ccc(/C(N)=N/OC(=O)c2cccc([N+](=O)[O-])c2)cc1OC |  | inactive: -28.9%
COc1ccc(S(=O)(=O)NNC(N)=S)cc1 |  | inactive: -14.8%
CN(CC/C=C1/c2ccccc2CSc2ccccc21)CCCO | inconclusive: 18.4 µM [inhibitor, single point] | 
Cc1ccsc1C(=O)NNC(=O)Nc1ccc(Cl)c(Cl)c1 |  | inactive: -24.2%
